Laboratory results: the supplement of paper PMC7826260
The other results are listed elsewhere or left out. Viral Rep nickase domains cut single-stranded DNA in vitro (1 h at 37 °C, 3 µM enzyme); the outer parts of the 90-letter strands are left off. A value is the log2 ratio of uncut reads to the pool without enzyme; more negative means more cut, near 0 not cut, and no call is made. The scaling is to total reads; values above 0 arise when much of the pool is cut.

Legend:
Test in all cases: uncleaved DNA left, log2 of reads against the no-enzyme library (log2 ratio); higher = less cleavage (more negative = more Rep cleavage of the k-mer); sequences stand for … in CTCGTCCG…ACCGGAGA
[1] = system: T1, Rep nickase domain of Muscovy duck circovirus
T1 sequence (Rep 1-111, printed without the tag): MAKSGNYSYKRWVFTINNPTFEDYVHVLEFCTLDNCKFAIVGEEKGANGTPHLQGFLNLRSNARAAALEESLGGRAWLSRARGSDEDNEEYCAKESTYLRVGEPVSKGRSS
Procedure: (§1)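 A pool of 90-nt single-stranded DNAs with seven random bases just before the constant AC of the nick site (name = the seven bases) was cut by 3 µM recombinant His6-SUMO-tagged Rep nickase domain (300 nM DNA, 50 mM HEPES pH 8.0, 50 mM NaCl, 1 mM MnCl2, 1 h, 37 °C, three replicates). Uncut DNA was amplified and sequenced.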

[2] = system: T2, Rep nickase domain of banana bunchy top virus
T2 sequence (Rep 1-94, printed without the tag): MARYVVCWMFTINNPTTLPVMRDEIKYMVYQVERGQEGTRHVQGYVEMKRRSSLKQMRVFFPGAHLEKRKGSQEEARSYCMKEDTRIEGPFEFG
Procedure: as §1

[3] = system: T3, Rep nickase domain of cabbage leaf curl virus
T3 sequence (Rep 1-116, printed without the tag): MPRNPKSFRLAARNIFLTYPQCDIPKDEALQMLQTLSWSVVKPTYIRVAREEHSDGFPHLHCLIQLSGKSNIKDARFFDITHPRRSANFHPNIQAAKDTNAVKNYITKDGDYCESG
Procedure: as §1

[4] = system: T4, Rep nickase domain of chickpea chlorotic dwarf virus
T4 sequence (Rep 1-124, printed without the tag): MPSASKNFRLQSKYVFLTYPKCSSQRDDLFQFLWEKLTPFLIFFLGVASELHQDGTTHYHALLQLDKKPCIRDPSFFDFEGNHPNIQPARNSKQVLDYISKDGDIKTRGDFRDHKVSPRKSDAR
Procedure: as §1

[5] = system: T5, Rep nickase domain of faba bean necrotic yellows virus
T5 sequence (Rep 1-98, printed without the tag): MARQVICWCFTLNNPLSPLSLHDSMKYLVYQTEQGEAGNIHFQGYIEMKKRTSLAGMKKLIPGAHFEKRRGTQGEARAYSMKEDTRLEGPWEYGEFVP
Procedure: as §1

[6] = system: T6, Rep nickase domain of maize striate mosaic virus
T6 sequence (Rep 1-117, printed without the tag): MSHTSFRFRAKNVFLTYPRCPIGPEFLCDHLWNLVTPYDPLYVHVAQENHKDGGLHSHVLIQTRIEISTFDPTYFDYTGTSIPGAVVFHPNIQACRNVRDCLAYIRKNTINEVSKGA
Procedure: as §1

[7] = system: T7, Rep nickase domain of porcine circovirus 2
T7 sequence (Rep 2-116, printed without the tag): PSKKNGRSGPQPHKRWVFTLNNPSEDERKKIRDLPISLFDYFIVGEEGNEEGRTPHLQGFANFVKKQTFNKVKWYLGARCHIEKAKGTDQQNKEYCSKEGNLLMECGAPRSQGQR
Procedure: as §1

[8] = system: T8, Rep nickase domain of tomato golden mosaic virus
T8 sequence (Rep 1-124, printed without the tag): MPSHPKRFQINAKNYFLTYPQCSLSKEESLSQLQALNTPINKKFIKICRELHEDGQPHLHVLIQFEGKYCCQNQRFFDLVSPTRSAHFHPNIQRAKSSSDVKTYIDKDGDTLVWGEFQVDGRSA
Procedure: as §1

[9] = system: T9, Rep nickase domain of tomato yellow leaf curl virus
T9 sequence (Rep 1-136, printed without the tag): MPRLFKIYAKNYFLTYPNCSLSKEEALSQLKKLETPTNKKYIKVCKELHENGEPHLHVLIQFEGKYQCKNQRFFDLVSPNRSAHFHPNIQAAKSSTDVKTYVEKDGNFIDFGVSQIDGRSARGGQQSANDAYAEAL
Procedure: as §1

[10] = system: T10, Rep nickase domain of wheat dwarf virus
T10 sequence (Rep 1-137, printed without the tag): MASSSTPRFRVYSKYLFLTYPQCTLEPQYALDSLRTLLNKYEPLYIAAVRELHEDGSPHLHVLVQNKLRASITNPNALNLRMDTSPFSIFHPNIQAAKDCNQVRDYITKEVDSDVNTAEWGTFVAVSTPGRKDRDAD
Procedure: as §1

Sequence | uncleaved DNA left (log2) [1] | uncleaved DNA left (log2) [2] | uncleaved DNA left (log2) [3] | uncleaved DNA left (log2) [4] | uncleaved DNA left (log2) [5] | uncleaved DNA left (log2) [6] | uncleaved DNA left (log2) [7] | uncleaved DNA left (log2) [8] | uncleaved DNA left (log2) [9] | uncleaved DNA left (log2) [10]
ACGCATT | 0.106 | 0.237 | -0.208 | -1.39 | 0.11 | -0.606 | -0.251 | 0.0608 | 0.164 | 0.173
GCACCGA | -0.0693 | -0.0396 | -0.102 | 0.117 | -0.111 | -0.459 | 0.0997 | -0.0586 | 0.00726 | 0.0885
CTTGCAA | 0.209 | 0.119 | -0.516 | -0.412 | 0.141 | -1.03 | 0.114 | 0.134 | 0.23 | 0.1
TATCGCG | 0.0512 | 0.00638 | -0.671 | 0.773 | -0.00391 | -0.447 | 0.116 | -0.0308 | 0.021 | -0.12
CGAATAT | -0.107 | -0.0591 | -0.0702 | -0.361 | -0.0457 | -0.272 | 0.018 | -0.139 | 0.0521 | -0.0975
GTAAGCT | -0.087 | -0.0771 | -0.468 | -1.46 | -0.0242 | 0.897 | 0.00714 | -0.017 | -0.0379 | -0.0589
TCGTCTA | -0.145 | -0.19 | -0.125 | -1.06 | -0.0959 | -0.194 | -0.493 | -0.156 | -0.101 | -0.186
CTAGTAC | -0.653 | -0.0278 | 0.0247 | -0.989 | -0.082 | -0.595 | -1.62 | -0.0729 | -0.142 | -0.194
TGGTGTG | -0.0467 | -0.117 | -0.743 | -0.345 | -0.0478 | -0.772 | 0.0691 | -0.0339 | -0.00837 | -0.22
CGACAGG | 0.00106 | 0.219 | 0.0251 | 0.693 | -0.0172 | 1.19 | 0.136 | 0.116 | 0.0108 | 0.127
ATGCTAA | -0.0397 | -0.0378 | -0.145 | -0.279 | 0.0228 | -0.868 | -0.0304 | -0.0373 | -0.0167 | 0.078
TCCCGGA | -0.0932 | -0.112 | 0.198 | 0.372 | -0.0385 | 0.114 | -0.00574 | 0.0155 | -0.115 | -0.0728
TAAGCGT | -0.00528 | -0.0857 | -1.15 | -1.82 | 0.0639 | -1.02 | 0.106 | -0.0605 | 0.0444 | -0.141
AACATCG | 0.0438 | 0.0478 | -0.691 | 0.163 | 0.0837 | -0.767 | 0.194 | 0.00579 | 0.0362 | -0.107
TTCACTC | -0.00248 | -0.00795 | 0.176 | -0.711 | 0.0256 | -0.154 | 0.061 | -0.0881 | 0.0505 | 0.0545
